Assay results reported in the antibiotic and cytotoxicity screens of Wong et al. (2023).
Some of the results follow.

Key:
HSkMC = human skeletal muscle cells; experiment: cytotoxicity call (relative viability < 0.9); details: 10 µM
S. aureus RN4220 = experiment: growth inhibition call (relative growth <= 0.2); details: 50 µM

How did the cytotoxicity call (HSkMC) turn out when `C[C@@H]1CN([C@H](C)CO)C(=O)c2cccc(NC(=O)c3nc4ccccc4s3)c2O[C@H]1CN(C)C(=O)Nc1ccc(C(F)(F)F)cc1` was run?
Its cytotoxicity call is “inactive”.

And the growth inhibition call (S. aureus RN4220)?
Its growth inhibition call is “inactive”.

With `C[C@H]1CCCCO[C@@H](CN(C)S(=O)(=O)c2ccc(Cl)cc2)[C@@H](C)CN([C@@H](C)CO)C(=O)c2cc(NS(=O)(=O)c3ccc(F)cc3)ccc2O1` as the molecule, how does the cytotoxicity call (HSkMC) read?
The cytotoxicity call was “inactive”.

What about the growth inhibition call (S. aureus RN4220) of the same molecule?
The growth inhibition call was “inactive”.

How did the cytotoxicity call (HSkMC) turn out when `CNC(=O)C[C@H]1CC[C@@H]2[C@H](COc3ccc(NC(=O)c4ccc(C(F)(F)F)cc4)cc3C(=O)N2C)O1` was run?
Its cytotoxicity call is “inactive”.

What about the growth inhibition call (S. aureus RN4220) of the same molecule?
The growth inhibition call was “inactive”.

With `C[C@@H]1CN([C@@H](C)CO)C(=O)Cc2cc(NC(=O)Nc3cccc4ccccc34)ccc2O[C@@H]1CN(C)S(=O)(=O)c1ccc(F)cc1` as the molecule, how does the cytotoxicity call (HSkMC) read?
The cytotoxicity call was “inactive”.

What about the growth inhibition call (S. aureus RN4220) of the same molecule?
Its growth inhibition call is “inactive”.

How did the cytotoxicity call (HSkMC) turn out when `O=C(C[C@@H]1C[C@H]2c3cc(NC(=O)Nc4ccccc4)ccc3O[C@H]2[C@H](CO)O1)NCCN1CCCCC1` was run?
Its cytotoxicity call is “inactive”.

What about the growth inhibition call (S. aureus RN4220) of the same molecule?
The growth inhibition call was “inactive”.

How did the cytotoxicity call (HSkMC) turn out when `C[C@@H]1CN([C@@H](C)CO)C(=O)c2cccc(NC(=O)c3ccc(-c4nccs4)cc3)c2O[C@H]1CN(C)C(=O)Nc1ccc2c(c1)OCO2` was run?
The cytotoxicity call was “inactive”.

What about the growth inhibition call (S. aureus RN4220) of the same molecule?
Its growth inhibition call is “inactive”.

What does the source list for `C[C@@H]1CCCCO[C@@H](CN(C)Cc2ccc(Cl)c(Cl)c2)[C@@H](C)CN([C@H](C)CO)C(=O)c2cc(NS(=O)(=O)c3ccc(Cl)cc3)ccc2O1`?
cytotoxicity call (HSkMC): inactive; growth inhibition call (S. aureus RN4220): inactive

How did the cytotoxicity call (HSkMC) turn out when `C[C@H]1CN([C@@H](C)CO)C(=O)c2cc(C#CCN(C)C)cnc2O[C@H]1CN(C)S(=O)(=O)c1ccccc1` was run?
Its cytotoxicity call is “inactive”.

What about the growth inhibition call (S. aureus RN4220) of the same molecule?
The growth inhibition call was “inactive”.

What does the source list for `Cc1ccc(S(=O)(=O)Nc2cccc3c2O[C@@H](CN(C)Cc2ccc(-c4ccccc4)cc2)[C@H](C)CN([C@H](C)CO)C3=O)cc1`?
cytotoxicity call (HSkMC): inactive; growth inhibition call (S. aureus RN4220): inactive

`CC(=O)N(C)C[C@@H]1Oc2cc(C#CCN(C)C)ccc2S(=O)(=O)N([C@@H](C)CO)C[C@H]1C` was tested. Which cytotoxicity call (HSkMC) did it give?
Its cytotoxicity call is “inactive”.

And the growth inhibition call (S. aureus RN4220)?
The growth inhibition call was “inactive”.

What does the source list for `C[C@H](CO)N1C[C@H](C)[C@@H](CN(C)S(=O)(=O)c2cccc(F)c2)Oc2ncc(C#CC3CCCC3)cc2C1=O`?
cytotoxicity call (HSkMC): inactive; growth inhibition call (S. aureus RN4220): inactive

Which results are given for `C=C(/C=C\CNS(=O)(=O)c1ccc(C)cc1)[C@H](O)[C@H]1CCCN1S(=O)(=O)c1ccccc1[N+](=O)[O-]`?
cytotoxicity call (HSkMC): inactive; growth inhibition call (S. aureus RN4220): inactive

With `O=C(C[C@H]1C[C@H]2c3cc(NS(=O)(=O)c4ccc(F)cc4)ccc3O[C@H]2[C@H](CO)O1)NCc1ccccc1` as the molecule, how does the cytotoxicity call (HSkMC) read?
Its cytotoxicity call is “inactive”.

And the growth inhibition call (S. aureus RN4220)?
Its growth inhibition call is “inactive”.

What does the source list for `C[C@H](CO)N1C[C@H](C)[C@@H](CN(C)C(=O)Nc2cccc3ccccc23)Oc2ccc(NS(=O)(=O)c3cccs3)cc2CC1=O`?
cytotoxicity call (HSkMC): inactive; growth inhibition call (S. aureus RN4220): inactive

With `O=C1O[C@H](c2ccccc2)[C@H](c2ccccc2)N2[C@H]1[C@@H](C(=O)O)[C@]1(C(=O)Nc3ccc(C#CC4=CCCCC4)cc31)[C@H]2c1ccc(O)cc1` as the molecule, how does the cytotoxicity call (HSkMC) read?
Its cytotoxicity call is “inactive”.

And the growth inhibition call (S. aureus RN4220)?
The growth inhibition call was “active”.

Which results are given for `C[C@@H]1CCCCO[C@@H](CN(C)C(=O)NC2CCCCC2)[C@H](C)CN([C@@H](C)CO)C(=O)c2cc(NC(=O)c3ccncc3)ccc2O1`?
cytotoxicity call (HSkMC): inactive; growth inhibition call (S. aureus RN4220): inactive

What does the source list for `C[C@H](CO)N1C[C@H](C)[C@@H](CN(C)Cc2ccc3c(c2)OCO3)OCCCC[C@H](C)Oc2ccc(NC(=O)CCC(F)(F)F)cc2C1=O`?
cytotoxicity call (HSkMC): inactive; growth inhibition call (S. aureus RN4220): inactive

With `COCCOC(=O)N1C(=O)[C@@]2(c3cc(C#CC4=CCCCC4)ccc31)[C@H](c1ccc(OCCO)cc1)N1[C@H](c3ccccc3)[C@H](c3ccccc3)OC(=O)[C@H]1[C@@H]2C(=O)N1CCN(c2ncccn2)CC1` as the molecule, how does the cytotoxicity call (HSkMC) read?
Its cytotoxicity call is “inactive”.

And the growth inhibition call (S. aureus RN4220)?
The growth inhibition call was “inactive”.

How did the cytotoxicity call (HSkMC) turn out when `C[C@H](CO)N1C[C@H](C)[C@@H](CN(C)Cc2ccc(-c3ccccc3)cc2)Oc2ccc(NC(=O)CCCCCC(=O)Nc3ccccc3N)cc2CC1=O` was run?
The cytotoxicity call was “inactive”.

What about the growth inhibition call (S. aureus RN4220) of the same molecule?
The growth inhibition call was “inactive”.

With `CC(C)Oc1ccc(Cl)cc1CN` as the molecule, how does the cytotoxicity call (HSkMC) read?
The cytotoxicity call was “inactive”.

What about the growth inhibition call (S. aureus RN4220) of the same molecule?
The growth inhibition call was “inactive”.

For `C[C@@H]1CN([C@H](C)CO)C(=O)c2cccc(NC(=O)Nc3ccc4c(c3)OCO4)c2O[C@@H]1CN(C)Cc1ccc(Oc2ccccc2)cc1`, which cytotoxicity call (HSkMC) is on record?
Its cytotoxicity call is “inactive”.

What about the growth inhibition call (S. aureus RN4220) of the same molecule?
Its growth inhibition call is “inactive”.

Which cytotoxicity call (HSkMC) does the source give for `C[C@H](CO)N1C[C@H](C)[C@@H](CN(C)Cc2ccc(C(=O)Nc3ccccc3N)cc2)Oc2ccc(NC(=O)Cc3ccccc3)cc2C1=O` here?
Its cytotoxicity call is “inactive”.

What about the growth inhibition call (S. aureus RN4220) of the same molecule?
The growth inhibition call was “inactive”.

Which cytotoxicity call (HSkMC) does the source give for `C[C@@H]1CCCCO[C@H](CN(C)C(=O)Nc2ccc(F)cc2)[C@H](C)CN([C@@H](C)CO)C(=O)c2cc(NC(=O)c3ccccc3)ccc2O1` here?
The cytotoxicity call was “inactive”.

And the growth inhibition call (S. aureus RN4220)?
Its growth inhibition call is “inactive”.

What does the source list for `O=C1CN(S(=O)(=O)Cc2ccccc2)C[C@H]2[C@H](c3ccc(C#Cc4ccc(F)cc4)cc3)[C@H](CO)N12`?
cytotoxicity call (HSkMC): active; growth inhibition call (S. aureus RN4220): inactive
